Assay results reported in ChEMBL document CHEMBL4888484, “Replenishing the malaria drug discovery pipeline: Screening and hit evaluation of the MMV Hit Generation Library 1 (HGL1) against asexual blood stage Plasmodium falciparum ,using a nano luciferase reporter read-out” (2022).
Screen size: about 150,000 compounds; about 540 (0.36%) showed an effect of 50% or more. The list shows a part of the results.

Tested on: Plasmodium falciparum
Experiment: Primary screen in NF54 nanoGlo assay, in single point, at 2uM, 72h; a lower Z score goes with more inhibition
Type: functional, Erythrocyte
Details: timepoint 72 hour

Row | SMILES | % Inhibition [%] | Z score
1 | CNC(=O)[C@@H]1CN(C(=O)Cc2ccc(Br)cc2)C[C@H]1CO | -13 | 1.9
2 | COCCCn1c(C)cnc1[C@H]1CCN(Cc2ccccn2)C1 | -4 | 0.57
3 | Cc1cccc([C@H](C)NCCS(=O)(=O)C(C)(C)C)c1 | 1 | -0.07
4 | COC(=O)[C@@]1(CO)N[C@@H](c2ccc3c(c2)OC(F)(F)O3)[C@H]2C(=O)N(C)C(=O)[C@H]21 | -19 | 2.85
5 | Cc1ncc(CNC(=O)N2CCO[C@H](c3cccc(Cl)c3)[C@H]2C)o1 | -2 | 0.35
6 | OC[C@H]1CN(c2nnc(-c3ccccc3)s2)C[C@H]1CN1CCC(O)CC1 | -6 | 1.13
7 | CNS(=O)(=O)[C@H]1CCN(Cc2ccc(Cl)cc2C)C1 | -6 | 0.83
8 | COCCn1nnnc1NC(=O)c1sc(C2CCCC2)nc1C | -6 | 0.82
9 | COCCn1ccc(-c2sc(N)nc2C)n1 | -12 | 1.6
10 | Cc1cc(C(=O)NS(=O)(=O)C2COC2)ccc1F | -3 | 0.52
11 | Cc1nc(C(=O)N2CCN[C@H](c3ccccc3)C2)cs1 | 0 | 0
12 | COCCNCCOc1ccc(Cl)c(C)c1 | -20 | 2.51
13 | CCC(CC)C(=O)NCCc1nc(C)cs1 | -9 | 1.21
14 | C[C@H]1CCCCN1Cc1ccc(CNC(=O)c2ccc(S(=O)(=O)NC3CC3)cc2)cc1 | -10 | 1.41
15 | Cn1nc(C(=O)N2C3CCC2CC(CC(F)F)C3)cc1O (centres undefined) | -12 | 2.39
16 | Cc1oc(C)c(C(=O)N2CCOc3ccccc3[C@@H]2CO)c1C | 2 | -0.28
17 | Cc1nccc(-c2cccc(NC(=O)NCCCn3nc(C)c(C)c3C)c2)n1 | -3 | 0.39
18 | C[C@H]1CCCN(C(=O)COCc2nc(-c3ccccc3)no2)CC1 | -4 | 0.56
19 | N#Cc1ccc(C=Cc2ccc3c(c2)NC(=O)CO3)nc1 | 11 | -1.31
20 | Cc1csc(NC(=O)c2c[nH]c(C)cc2=O)n1 | -17 | 1.89
21 | O=C(N[C@H]1CCO[C@@H]1c1ccccc1)c1cc(C(F)F)ncn1 | 7 | -0.83
22 | CCNS(=O)(=O)N1C[C@H](C(=O)OC)[C@@H](c2ccc(F)cc2F)C1 | -5 | 0.72

Row | SMILES | % Inhibition [%] | Z score
23 | COc1ccc(C(=O)N[C@H]2C[C@H]3C(=O)NC[C@@H](CCC(=O)NCc4cccnc4)N3C2)cc1 | 30 | -3.34
24 | CN(C[C@H]1CCCN1C)C(=O)NCc1nn(C)cc1Br | 0 | -0.05
25 | CS(=O)(=O)N[C@H]1CCOC2(CCCC2)C1 | -18 | 2.26
26 | CC(C)c1noc(COc2cc(OCc3nc(C(C)C)no3)c(Cl)cc2Cl)n1 | -8 | 1.48
27 | FC(F)(F)c1cc(CNc2ncnc3c2CCCCC3)ccn1 | -5 | 0.79
28 | C[C@H](NC(=O)Cc1noc(CCC2(C)CC2)n1)c1ccccc1 | 11 | -1.39
29 | CC(C)(C)c1ccc([C@@H]2CCCN2)cc1 | -8 | 1.22
30 | C[C@H](OC(=O)c1ccc(C(N)=O)cc1)C(F)(F)F | -3 | 0.53
31 | Cn1cc(NC(=O)NC2CCN(Cc3ccccc3)CC2)ccc1=O | -10 | 1.31
32 | Cc1nn(C)c2c1C[C@H](Nc1cnccn1)CN2 | -6 | 1.15
33 | Cc1cc2[nH]c(C(=O)Nc3ccccc3F)c(CN3CCCC3)c2s1 | -12 | 1.2
34 | CC[C@@H](C(=O)NCCC1CCN(C)CC1)N(c1ccc(C)cc1)S(C)(=O)=O | -4 | 0.62
35 | O=C(NCc1ccccc1F)C1CCN(c2cncnc2N2CCCC2)CC1 | 38 | -1.76
36 | Fc1ccc(OC[C@H]2CCCN2)cc1Cl | 1 | -0.19
37 | CC1(C)CC(c2ccccc2)N(C(=O)C2CCc3nncn3C2)C1 (centres undefined) | -6 | 1.14
38 | Cn1nc(C2CCN(C(=O)c3ccco3)CC2)c2c1CCOC2 | -8 | 1.03
39 | CCc1[nH]nc(-c2ccc(F)c(F)c2)c1NC(=O)c1ccc(Cl)cc1 | -9 | 1.36
40 | c1ccc(-c2cnc3n2C[C@H](CNC2CCCC2)OC3)cc1 | 8 | -1.18
41 | Cn1ccnc1C1(O)CN(C(=O)OCC(F)(F)F)C1 | 1 | -0.2
42 | Cc1ccc(C[C@H](Nc2ncnc3onc(C)c23)c2ccccn2)cc1 | -1 | 0.14
43 | CC1CCCCC1N(C)C(=O)c1cccc[n+]1[O-] (centres undefined) | 2 | -0.26
44 | Cc1cc(F)cc2c1N(CC(=O)N1CCC[C@H](C(N)=O)C1)CCC2 | 8 | -1.08

Row | SMILES | % Inhibition [%] | Z score
45 | Cc1ccc(NC(=O)CN(Cc2cocn2)Cc2cocn2)cc1F | 3 | -0.37
46 | NC(=O)NCCc1ccc(F)c(F)c1F | -2 | 0.23
47 | CNS(=O)(=O)CCNC(=O)Nc1cc2c(cc1N(C)C)n(C)c(=O)n2C | -6 | 0.7
48 | Cc1nn(C)c(C)c1C(=O)Oc1ccc2cn[nH]c2c1 | -4 | 0.46
49 | CC(=O)c1ccc(S(=O)(=O)N2CCC[C@H](C(=O)c3cccc(OC(C)C)c3)C2)cc1 | 2 | -0.14
50 | Cc1cccc(N2CCC(N[C@H]3CCCCNC3=O)CC2)c1C | 15 | -2.05
51 | COc1cc2c(cc1OC)CN(c1cc(C3CC(O)C3)ncn1)CC2 (centres undefined) | -2 | 0.24
52 | C[C@H](N)C(=O)N1CCCC1Cc1ccc2ccccc2c1 (some centres undefined) | -4 | 0.33
53 | Cc1nn(C)c(C)c1-c1cc(C(=O)Nc2cc(F)ccc2F)c2c(C)nn(C)c2n1 | 32 | -0.15
54 | C[C@@H](CNC(=O)N1CCN(Cc2ccc3c(c2)OCO3)CC1)n1ccnc1 | -13 | 2.2
55 | CCN(CC)S(=O)(=O)NC1CCCCCC1 | -15 | 1.5
56 | O=C(C[C@@H]1C=CCC1)NC1CCCCC1 | -12 | 1.46
57 | C=CCNC(=O)CN(C)Cc1snnc1C | -10 | 1.48
58 | CCc1cnc(NC(=O)CCOCC(F)(F)F)s1 | -5 | 0.9
59 | Cc1csc([C@@H](C#N)C(=O)c2cnc(Oc3ccccc3)cn2)n1 | -15 | 1.51
60 | O=S(=O)(NCc1ccc(N2CCCC2)cc1)c1ccc(Cl)cc1 | -16 | 1.48
61 | C[C@H](Oc1ccc(Cl)c(Cl)c1)C(=O)NC(N)=O | -32 | 3.77
62 | CCc1ccc(C(=O)NS(=O)(=O)N2CCN(Cc3ccccc3)CC2)o1 | -9 | 0.81
63 | O=C(NCCc1ccco1)c1cc(N2CCOCC2)ncn1 | -5 | 1
64 | CN(Cc1ccc(-n2cccn2)cc1)S(=O)(=O)N1CCC(C)(C)CC1 | -8 | 1.55
65 | N#CC1(NC(=O)Cn2nnc3ccccc32)CCC1 | 0 | -0.01
66 | O=S(=O)(N[C@H]1CCN(c2nccs2)C1)c1ccccc1 | -8 | 1.44

Row | SMILES | % Inhibition [%] | Z score
67 | Cc1cc(NC(=O)CCN2C[C@H](F)C[C@H]2C(N)=O)no1 | -7 | 0.68
68 | CCCOc1ccc(-c2nc(C(=O)NCCc3ccccn3)cs2)c(Cl)c1 | 8 | -1.16
69 | Cc1ccccc1-c1nc2cc(NS(=O)(=O)c3ccccc3)ccc2o1 | 36 | -0.71
70 | CC(NC(=O)NC1CCN(CC2CCCC2)C1)C1CCCO1 (centres undefined) | -10 | 1.94
71 | NC(=O)[C@@H]1CCCN1C(=O)c1cc2cc(Br)ccc2o1 | 4 | -0.55
72 | Cc1nc(-c2ccc(NS(=O)(=O)c3cnc(C4CC4)s3)cc2)co1 | -4 | 0.51
73 | O=C(COCC(F)(F)C(F)F)NCCn1cc(Cl)cn1 | -6 | 1.11
74 | COc1cc(NC(=O)CCS(=O)(=O)c2ccc3c(c2)CC(=O)N3C)cc(OC)c1OC | -11 | 1.4
75 | COc1ccsc1C(=O)N[C@@H]1CCC(=O)N[C@H]1C(C)(C)C | -4 | 0.61
76 | COc1ccc2c(c1)CN(C(=O)Nc1ccnc(C(=O)N3CCN(C)CC3)c1)C2 | 7 | -0.87
77 | COc1ccc([C@H](CNC(=O)c2cc(OC)c(OC)c(OC)c2)N2CCCCC2)cc1 | -9 | 1.16
78 | Cc1ncsc1CNC(=O)N1CCC[C@H](CN2CCOCC2)C1 | -11 | 1.41
79 | CCC=CCCNc1cn(C)nc1-c1cnn(C)c1 | -17 | 2.27
80 | Cc1nn(C(C)C)c(C)c1CN(C)c1cc(C#N)ccn1 | -14 | 2.16
81 | C[C@@H](CN(C)Cc1cc(CN(C)C)cs1)N1CCOCC1 | -4 | 0.73
82 | CCc1nc(C)ccc1OCc1nsc(N(C)C)n1 | -1 | 0.18
83 | CC1CC(C)CN(C(=O)CN2CCCC2c2cccs2)C1 (centres undefined) | -7 | 0.87
84 | N#Cc1cc(N)c(N)c(Br)c1 | -41 | 4.84
85 | Cc1ccc(NC(=O)C2CCN(S(=O)(=O)c3c(C)[nH]c(C)c3C(=O)N3CCCC3)CC2)cc1 | -8 | 0.78
86 | O=C(CC1=CCCC1)N[C@H]1C[C@H](c2cc(N3CCOCC3)ncn2)C1 | -9 | 1.64
87 | CC(C)(NS(C)(=O)=O)c1noc(-c2cncc(F)c2)n1 | -3 | 0.42
